US20100074867A1, “P1-NONEPIMERIZABLE KETOAMIDE INHIBITORS OF HCV NS3 PROTEASE” (Schering Corporation Patent Department, K-6-1; 1990, priority 2007, published 2010)
Where two headings read alike, the source gives them in different places.

Molecular target: HCV NS3/NS4A protease (strain 1a) (Hepatitis C virus genotype 1a, UniProt P27958)
Assay: HCV continuous spectrophotometric protease assay
Assay type: biochemical
Details: ranges of Ki* values in nM
From the text: Spectrophotometric Assay Spectrophotometric assay for the HCV serine protease can be performed on the inventive compounds by following the procedure described by R. Zhang et al, Analytical Biochemistry, 270 (1999) 268-275, the disclosure of which, is incorporated herein by reference. The assay based on the proteolysis of chromogenic ester substrates is suitable for the continuous monitoring of HCV NS3 protease activity. The substrates are derived from the P side of the NS5A-NS5B junction sequence (Ac-DTEDVVX(Nva), where X=A or P) whose C-terminal carboxyl groups are esterified with one of four different chromophoric alcohols (3- or 4-nitrophenol, 7-hydroxy-4-methyl-coumarin, or 4-phenylazophenol). Illustrated below are the synthesis, characterization and application of these novel spectrophotometric ester substrates to high throughput screening and detailed kinetic evaluation of HCV NS3 protease inhibitors.
• Materials: Chemical reagents for assay related buffers are obtained from Sigma Chemical Company (St. Louis, Mo.). Reagents for peptide synthesis were from Aldrich Chemicals, Novabiochem (San Diego, Calif.), Applied Biosystems (Foster City, Calif.) and Perseptive Biosystems (Framingham, Mass.). Peptides are synthesized manually or on an automated ABI model 431A synthesizer (from Applied Biosystems). UV/VIS Spectrometer model LAMBDA 12 was from Perkin Elmer (Norwalk, Conn.) and 96-well UV plates were obtained from Corning (Corning, N.Y.). The prewarming block can be from USA Scientific (Ocala, Fla.) and the 96-well plate vortexer is from Labline Instruments (Melrose Park, Ill.). A Spectramax Plus microtiter plate reader with monochrometer is obtained from Molecular Devices (Sunnyvale, Calif.). […] Protein concentrations are determined by the Biorad dye method using recombinant HCV protease standards previously quantified by amino acid analysis. Prior to assay initiation, the enzyme storage buffer (50 mM sodium phosphate pH 8.0, 300 mM NaCl, 10% glycerol, 0.05% lauryl maltoside and 10 mM DTT) is exchanged for the assay buffer (25 mM MOPS pH 6.5, 300 mM NaCl, 10% glycerol, 0.05% lauryl maltoside, 5 μM EDTA and 5 μM DTT) utilizing a Biorad Bio-Spin P-6 prepacked column. Substrate Synthesis and Purification: The synthesis of the substrates is done as reported by R. Zhang et al, (ibid.) and is initiated by anchoring Fmoc-Nva-OH to 2-chlorotrityl chloride resin using a standard protocol (K. Barlos et al, Int. J. Pept. Protein Res., 37 (1991), 513-520). The peptides are subsequently assembled, using Fmoc chemistry, either manually or on an automatic ABI model 431 peptide synthesizer. […] The combined filtrate and DCM wash is evaporated azeotropically (or repeatedly extracted by aqueous Na2CO3 solution) to remove the acid used in cleavage. The DCM phase is dried over Na2SO4 and evaporated.
The ester substrates are assembled using standard acid-alcohol coupling procedures (K. Holmber et al, Acta Chem. Scand., B33 (1979) 410-412). Peptide fragments are dissolved in anhydrous pyridine (30-60 mg/ml) to which 10 molar equivalents of chromophore and a catalytic amount (0.1 eq.) of para-toluenesulfonic acid (pTSA) were added. Dicyclohexylcarbodiimide (DCC, 3 eq.) is added to initiate the coupling reactions. Product formation is monitored by HPLC and can be found to be complete following 12-72 hour reaction at room temperature. Pyridine solvent is evaporated under vacuum and further removed by azeotropic evaporation with toluene. The peptide ester is deprotected with 95% TFA in DCM for two hours and extracted three times with anhydrous ethyl ether to remove excess chromophore. The deprotected substrate is purified by reversed phase HPLC on a C3 or C8 column with a 30% to 60% acetonitrile gradient (using six column volumes).

Ki (read-out: Ki*) [nM] | SMILES | Ki (Ki*) [nM]
< 500 | CC[C@H]1C[C@]1(NC(=O)[C@@H]1[C@@H]2[C@H](CN1C(=O)[C@@H](NC(=O)NC1(CS(=O)(=O)C(C)(C)C)CCCCC1)C(C)(C)C)C2(C)C)C(=O)C(N)=O (racemic) [3Z] | –
1000 to 5000 | CC[C@H]1C[C@]1(NC(=O)[C@@H]1[C@@H]2[C@H](CN1C(=O)[C@@H](NC(=O)NC(C)(C)C)C(C)(C)C)C2(C)C)C(=O)C(N)=O (racemic) [7Z] | –
5000 to 10000 | CC[C@@H]1C[C@@]1(NC(=O)[C@@H]1[C@@H]2[C@H](CN1C(=O)[C@@H](NC(=O)N[C@H](CN(C)S(C)(=O)=O)C(C)(C)C)C(C)(C)C)C2(C)C)C(=O)C(=O)NC1CC1 [1Z] | –
1000 to 5000 | CC[C@H]1C[C@]1(NC(=O)[C@@H]1[C@@H]2[C@H](CN1C(=O)[C@@H](NC(=O)NC1(CS(=O)(=O)C(C)(C)C)CCCCC1)C(C)(C)C)C2(C)C)C(=O)C(=O)NC1CC1 [2Z] | –
< 500 | CC[C@@H]1C[C@@]1(NC(=O)[C@@H]1[C@@H]2[C@H](CN1C(=O)[C@@H](NC(=O)NC1(CS(=O)(=O)C(C)(C)C)CCCCC1)C(C)(C)C)C2(C)C)C(=O)C(N)=O [4Z] | –
500 to 1000 | CC[C@H]1C[C@]1(NC(=O)[C@@H]1[C@@H]2[C@H](CN1C(=O)[C@@H](NC(=O)NC1(CS(=O)(=O)C(C)(C)C)CCCCC1)C(C)(C)C)C2(C)C)C(=O)C(N)=O [5Z] | –
1000 to 5000 | CC[C@H]1C[C@]1(NC(=O)[C@@H]1[C@@H]2[C@H](CN1C(=O)[C@@H](NC(=O)N[C@H](CN1C(=O)CC(C)(C)CC1=O)C(C)(C)C)C(C)(C)C)C2(C)C)C(=O)C(=O)NC1CC1 [6Z] | –
> 10000 | CC[C@@H]1C[C@@]1(NC(=O)[C@@H]1[C@@H]2[C@H](CN1C(=O)[C@@H](NC(=O)NC(C)(C)C)C(C)(C)C)C2(C)C)C(=O)C(N)=O [9Z] | –
< 500 | CC[C@@H]1C[C@@]1(NC(=O)[C@@H]1[C@@H]2[C@H](CN1C(=O)[C@@H](NC(=O)N[C@H](CN1C(=O)CC(C)(C)CC1=O)C(C)(C)C)C(C)(C)C)C2(C)C)C(=O)C(N)=O [10Z] | –
< 500 | CC[C@H]1C[C@]1(NC(=O)[C@@H]1[C@@H]2[C@H](CN1C(=O)[C@@H](NC(=O)N[C@H](CN1C(=O)CC(C)(C)CC1=O)C(C)(C)C)C(C)(C)C)C2(C)C)C(=O)C(N)=O [11Z] | –
500 to 1000 | CCC[C@H]1C[C@@]1(NC(=O)[C@@H]1[C@@H]2[C@H](CN1C(=O)[C@@H](NC(=O)NC1(CS(=O)(=O)C(C)(C)C)CCCCC1)C(C)(C)C)C2(C)C)C(=O)C(=O)NC1CC1 [13Z] | –
– | CCC[C@H]1C[C@]1(NC(=O)[C@@H]1[C@@H]2[C@H](CN1C(=O)[C@@H](NC(=O)NC1(CS(=O)(=O)C(C)(C)C)CCCCC1)C(C)(C)C)C2(C)C)C(=O)C(=O)NC1CC1 [14Z] | 1000 to 5000
500 to 1000 | CCC[C@H]1C[C@@]1(NC(=O)[C@@H]1[C@@H]2[C@H](CN1C(=O)[C@@H](NC(=O)N[C@H](CN1C(=O)CC(C)(C)CC1=O)C(C)(C)C)C(C)(C)C)C2(C)C)C(=O)C(=O)NC1CC1 [16Z] | –
> 10000 | CC(C)(C)[C@H](NC(=O)NC1(CS(=O)(=O)C(C)(C)C)CCCCC1)C(=O)N1C[C@H]2[C@@H]([C@H]1C(=O)NC1(C(=O)C(=O)NC3CC3)CC1)C2(C)C [18Z] | –
1000 to 5000 | CN(C[C@@H](NC(=O)N[C@H](C(=O)N1C[C@H]2[C@@H]([C@H]1C(=O)NC1(C(=O)C(=O)NC3CC3)CC1)C2(C)C)C(C)(C)C)C(C)(C)C)S(C)(=O)=O [19Z] | –
> 10000 | CC1(C)CC(=O)N(C[C@@H](NC(=O)N[C@H](C(=O)N2C[C@H]3[C@@H]([C@H]2C(=O)NC2(C(=O)C(=O)NC4CC4)CC2)C3(C)C)C(C)(C)C)C(C)(C)C)C(=O)C1 [20Z] | –
1000 to 5000 | CC[C@@H]1CC1(NC(=O)[C@@H]1[C@@H]2[C@H](CN1C(=O)[C@@H](NC(=O)NC1([C@@H](C)S(=O)(=O)C(C)(C)C)CCCCC1)C1(C)CCCCC1)C2(C)C)C(=O)C(=O)NC1CC1 (some centres unmarked) [21Z] | –
< 500 | CC[C@H]1CC1(NC(=O)[C@@H]1[C@@H]2[C@H](CN1C(=O)[C@@H](NC(=O)NC1([C@@H](C)S(=O)(=O)C(C)(C)C)CCCCC1)C1(C)CCCCC1)C2(C)C)C(=O)C(=O)NC1CC1 (some centres unmarked) [22Z] | –

Ki (read-out: Ki*) [nM] | SMILES | Ki (Ki*) [nM]
< 500 | CC[C@@H]1CC1(NC(=O)[C@@H]1[C@@H]2[C@H](CN1C(=O)[C@@H](NC(=O)NC1([C@@H](C)S(=O)(=O)C(C)(C)C)CCCCC1)C1(C)CCCCC1)C2(C)C)C(=O)C(N)=O (some centres unmarked) [23Z] | –
< 500 | CC[C@H]1CC1(NC(=O)[C@@H]1[C@@H]2[C@H](CN1C(=O)[C@@H](NC(=O)NC1([C@@H](C)S(=O)(=O)C(C)(C)C)CCCCC1)C1(C)CCCCC1)C2(C)C)C(=O)C(N)=O (some centres unmarked) [24Z] | –
< 500 | CCC[C@H]1CC1(NC(=O)[C@@H]1[C@@H]2[C@H](CN1C(=O)[C@@H](NC(=O)NC1(C3CCCS3(=O)=O)CCCCC1)C(C)(C)C)C2(C)C)C(=O)C(=O)NC1CC1 (some centres unmarked) [25Z] | –
5000 to 10000 | CCC[C@@H]1C[C@@]1(NC(=O)[C@@H]1[C@@H]2[C@H](CN1C(=O)[C@@H](NC(=O)NC1(C3CCCS3(=O)=O)CCCCC1)C(C)(C)C)C2(C)C)C(=O)C(=O)NC1CC1 (some centres unmarked) [26Z] | –
< 500 | CC[C@H]1CC1(NC(=O)[C@@H]1[C@@H]2[C@H](CN1C(=O)[C@@H](NC(=O)NC1(C3CCCS3(=O)=O)CCCCC1)C(C)(C)C)C2(C)C)C(=O)C(N)=O (some centres unmarked) [27Z] | –
< 500 | CC[C@H]1C[C@]1(NC(=O)[C@@H]1[C@@H]2[C@H](CN1C(=O)[C@@H](NC(=O)N[C@H](CN1C(=O)CC(C)(C)CC1=O)C(C)(C)C)C1(C)CCCCC1)C2(C)C)C(=O)C(N)=O [28Z] | –
1000 to 5000 | CC[C@@H]1C[C@@]1(NC(=O)[C@@H]1[C@@H]2[C@H](CN1C(=O)[C@@H](NC(=O)N[C@H](CN1C(=O)CC(C)(C)CC1=O)C(C)(C)C)C1(C)CCCCC1)C2(C)C)C(=O)C(N)=O [29Z] | –
1000 to 5000 | C[C@H]1CC1(NC(=O)[C@@H]1[C@@H]2[C@H](CN1C(=O)[C@@H](NC(=O)NC1(CS(=O)(=O)C(C)(C)C)CCCCC1)C(C)(C)C)C2(C)C)C(=O)C(=O)NC1CC1 (some centres unmarked) [30Z] | –
> 10000 | C[C@@H]1C[C@@]1(NC(=O)[C@@H]1[C@@H]2[C@H](CN1C(=O)[C@@H](NC(=O)NC1(CS(=O)(=O)C(C)(C)C)CCCCC1)C(C)(C)C)C2(C)C)C(=O)C(=O)NC1CC1 [31Z] | –
< 500 | C[C@H]1C[C@]1(NC(=O)[C@@H]1[C@@H]2[C@H](CN1C(=O)[C@@H](NC(=O)N[C@H](CN1C(=O)CC(C)(C)CC1=O)C(C)(C)C)C(C)(C)C)C2(C)C)C(=O)C(=O)NC1CC1 [32Z] | –
1000 to 5000 | C[C@@H]1C[C@@]1(NC(=O)[C@@H]1[C@@H]2[C@H](CN1C(=O)[C@@H](NC(=O)N[C@H](CN1C(=O)CC(C)(C)CC1=O)C(C)(C)C)C(C)(C)C)C2(C)C)C(=O)C(=O)NC1CC1 [33Z] | –
< 500 | CCNC(=O)C(=O)[C@]1(NC(=O)[C@@H]2[C@@H]3[C@H](CN2C(=O)[C@@H](NC(=O)NC2([C@@H](C)S(=O)(=O)C(C)(C)C)CCCCC2)C2Cc4ccccc4C2)C3(C)C)CC1CC (some centres unmarked) [34Z] | –
1000 to 5000 | CCNC(=O)C(=O)C1(NC(=O)[C@@H]2[C@@H]3[C@H](CN2C(=O)[C@H](NC(=O)NC2([C@@H](C)S(=O)(=O)C(C)(C)C)CCCCC2)C2Cc4ccccc4C2)C3(C)C)CC1CC (some centres unmarked) [35Z] | –
1000 to 5000 | CCNC(=O)C(=O)[C@@]1(NC(=O)[C@@H]2[C@@H]3[C@H](CN2C(=O)[C@@H](NC(=O)NC2([C@@H](C)S(=O)(=O)C(C)(C)C)CCCCC2)C2Cc4ccccc4C2)C3(C)C)CC1CC (some centres unmarked) [36Z] | –
1000 to 5000 | CCC1CC1(NC(=O)[C@@H]1[C@@H]2[C@H](CN1C(=O)[C@H](NC(=O)NC1([C@@H](C)S(=O)(=O)C(C)(C)C)CCCCC1)C1Cc3ccccc3C1)C2(C)C)C(=O)C(=O)NCC1CC1 (some centres unmarked) [38Z] | –
1000 to 5000 | CCC1C[C@]1(NC(=O)[C@@H]1[C@@H]2[C@H](CN1C(=O)[C@@H](NC(=O)NC1([C@@H](C)S(=O)(=O)C(C)(C)C)CCCCC1)C1Cc3ccccc3C1)C2(C)C)C(=O)C(=O)NCC1CC1 (some centres unmarked) [39Z] | –
1000 to 5000 | CCC1CC1(NC(=O)[C@@H]1[C@@H]2[C@H](CN1C(=O)[C@H](NC(=O)NC1([C@@H](C)S(=O)(=O)C(C)(C)C)CCCCC1)C1Cc3ccccc3C1)C2(C)C)C(=O)C(=O)NC1CC1 (some centres unmarked) [41Z] | –
